Assay results: the supplement of paper PMC10126150
Sequences with one replicate were seen in a single cluster, so their values are uncertain.

System: ATP
Test: switch fluorescence ratio, 500 uM ATP over buffer (Cy3 cluster intensity, sum of 5 cycles each) (fold (ratio)); higher = stronger signal-on switching upon ATP binding; sequences stand for … in TCGTCGGCAGCGTCAGATGTGTATAAGAGACAGTTTTTTTTTTTTTTTTTTTTTTTTT…TC
Conditions: aptamer strand: ATP DNA aptamer (quencher-CACCTGGGGGAGTATTGCGGAGGAAGG + anchor), 100 nM annealed; ATP concentration: 500 uM; one replicate
How it was run: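 Per cluster, summed Cy3 intensity from the target cycles was divided by that from the buffer cycles to give the fluorescence ratio, then averaged per switch-domain sequence. Clusters outside 100-1000 RFU were excluded. The Cy3-labelled switching-strand clusters, on a modified Illumina MiSeq flow-cell, were annealed to 100 nM quencher-labelled ATP aptamer and imaged in selection buffer, then after 15 min with 500 uM ATP at 22 °C, for five cycles with NaOH stripping and re-annealing between them.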
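Note: ATP exposure 15 min at 22 °C before imaging.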

AGAGAAAACC was tested, and the switch fluorescence ratio was 1.07.

ACCATACACG was tested, and the switch fluorescence ratio was 1.24.

With ATGTACCAGA the switch fluorescence ratio was 1.06.

In the case of GCGTATGTAA, the switch fluorescence ratio is reported as 1.

With ATGACAGTAC the switch fluorescence ratio was 1.49.

For TTTGTAGCAA, the switch fluorescence ratio was 2.27.

TACCATACGA showed a switch fluorescence ratio of 1.48.

GGAAAGGCCG gave a switch fluorescence ratio of 1.04.

Sequence ACTCTGGGGA has a switch fluorescence ratio of 0.991.

CCGGGACACG was tested, and the switch fluorescence ratio was 1.06.

Work on TTACTGGCTT yielded a switch fluorescence ratio of 0.992.

Work on CAGTTAGCCA yielded a switch fluorescence ratio of 1.01.

Sequence TTTACTGCGG has a switch fluorescence ratio of 1.

In the case of TTGGTTCTAG, the switch fluorescence ratio is reported as 1.03.

For ATTATGAAAA, the switch fluorescence ratio was 1.04.

Sequence TGGTTTTATC has a switch fluorescence ratio of 1.01.

CACTGGATTG gave a switch fluorescence ratio of 1.

ACGTCTCCTT was tested, and the switch fluorescence ratio was 1.05.

Sequence AAGCGCAAGG has a switch fluorescence ratio of 1.15.

Sequence ATTTGTCAGT has a switch fluorescence ratio of 1.01.

Sequence AACTTTCTCC has a switch fluorescence ratio of 2.31.

GGTGATTGGG gave a switch fluorescence ratio of 0.958.

GCTAGGGTAA gave a switch fluorescence ratio of 1.04.

In the case of TGGGATGAGC, the switch fluorescence ratio is reported as 1.04.

With TGTTTGTACT the switch fluorescence ratio was 1.02.

Work on AACTAGAAAT yielded a switch fluorescence ratio of 1.07.

Sequence TTCGAAGACT has a switch fluorescence ratio of 1.03.

Sequence CGAGTTACCA has a switch fluorescence ratio of 1.04.

Sequence GAAGGTACGT has a switch fluorescence ratio of 0.975.

CGTATGCTGA was tested, and the switch fluorescence ratio was 0.939.

Sequence AGAAATGGGT has a switch fluorescence ratio of 0.985.

TGTGGAGAAT was tested, and the switch fluorescence ratio was 1.03.

In the case of GGTATTTGT, the switch fluorescence ratio is reported as 0.971.

For GAAGACTATC, the switch fluorescence ratio was 1.05.

Sequence TTTTCATGGA has a switch fluorescence ratio of 0.978.

CTCCCGAACG gave a switch fluorescence ratio of 1.51.

In the case of CACACTTATT, the switch fluorescence ratio is reported as 1.04.

In the case of GACTCTTCTG, the switch fluorescence ratio is reported as 1.18.

TCTTAGTGTT was tested, and the switch fluorescence ratio was 0.958.

GAGGTAACTA showed a switch fluorescence ratio of 0.996.

TCATGGGTAG gave a switch fluorescence ratio of 0.996.

With AGCATGAAGC the switch fluorescence ratio was 1.

TTCACGGTAA gave a switch fluorescence ratio of 1.21.

With GCGGTTGATC the switch fluorescence ratio was 1.02.

Work on CATGGACAGG yielded a switch fluorescence ratio of 0.992.

TTGGCGCGGA gave a switch fluorescence ratio of 1.

With TGCGGGGGA the switch fluorescence ratio was 1.04.

ACGTGGGACT gave a switch fluorescence ratio of 0.967.

TGTTTCTTGT gave a switch fluorescence ratio of 1.01.

For CCAACACATC, the switch fluorescence ratio was 1.26.

With GCCGGGGGAA the switch fluorescence ratio was 1.03.

With CGATTAGAAG the switch fluorescence ratio was 0.968.

ATATACAGGC was tested, and the switch fluorescence ratio was 1.06.

ATCCTTGTGG gave a switch fluorescence ratio of 1.03.

With CGACGTCTTT the switch fluorescence ratio was 0.984.

With GTATATTTTA the switch fluorescence ratio was 0.985.

In the case of GACCTGGATA, the switch fluorescence ratio is reported as 1.03.

TAGGTTATA showed a switch fluorescence ratio of 1.01.

In the case of GCTTGCATGG, the switch fluorescence ratio is reported as 1.05.

AGTATGTGGC was tested, and the switch fluorescence ratio was 1.05.

With CGACCTGCT the switch fluorescence ratio was 1.02.

For ATCTTGGTTT, the switch fluorescence ratio was 0.995.

CCGATCCCTT gave a switch fluorescence ratio of 1.03.

AGTGTGTAGG showed a switch fluorescence ratio of 1.03.

With ATAACGTCGC the switch fluorescence ratio was 0.913.

With TTCCTGGAAT the switch fluorescence ratio was 1.94.

With ATGTCAAAAC the switch fluorescence ratio was 1.09.

GTGAGTCGGT showed a switch fluorescence ratio of 0.927.

For ATCCAATATA, the switch fluorescence ratio was 0.991.

With TCATGGTTGC the switch fluorescence ratio was 0.991.

In the case of GTGAAACTCA, the switch fluorescence ratio is reported as 1.13.

In the case of AAAATTTGT, the switch fluorescence ratio is reported as 1.02.

For TTTAAATCGC, the switch fluorescence ratio was 1.01.

Sequence AGGGTCCTTA has a switch fluorescence ratio of 0.964.

GGGAAGCCCG showed a switch fluorescence ratio of 1.

In the case of GCAACTGGTG, the switch fluorescence ratio is reported as 1.27.

Work on GCATTTTGGC yielded a switch fluorescence ratio of 0.952.

With ATTGCTTCTG the switch fluorescence ratio was 1.1.

With CGAATAGTTT the switch fluorescence ratio was 1.04.

Sequence GAAGTGAAGA has a switch fluorescence ratio of 0.989.

In the case of ACGACAACGG, the switch fluorescence ratio is reported as 1.16.

With CGCAATGTTG the switch fluorescence ratio was 1.63.

With ATGATAAAAA the switch fluorescence ratio was 0.998.

In the case of CTTTGCTAG, the switch fluorescence ratio is reported as 0.985.

ATTGTGCATG showed a switch fluorescence ratio of 0.978.
